Test results published in publication PMC6999913.
No constants are given. Whether binding was seen depends on the method and setting. Some results given as binding are weak or reduced against the parent protein; the word gives no strength.

The chains behind the UniProt entries cited, without tags or fusion partners. Residues count along the entry.
B42_E6AP 406–595 (Q05086, residues 406-595): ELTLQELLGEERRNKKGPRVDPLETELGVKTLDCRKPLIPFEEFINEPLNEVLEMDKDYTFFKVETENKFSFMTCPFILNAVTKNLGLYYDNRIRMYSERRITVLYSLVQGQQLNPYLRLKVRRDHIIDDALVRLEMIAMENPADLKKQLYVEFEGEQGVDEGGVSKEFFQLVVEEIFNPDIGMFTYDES
B42_E6AP 406–561 (Q05086, residues 406-561): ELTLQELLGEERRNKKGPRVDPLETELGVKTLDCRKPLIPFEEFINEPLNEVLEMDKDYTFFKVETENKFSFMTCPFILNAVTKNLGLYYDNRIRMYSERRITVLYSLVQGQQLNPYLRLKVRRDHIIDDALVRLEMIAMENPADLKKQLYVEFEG
UniProt P26045: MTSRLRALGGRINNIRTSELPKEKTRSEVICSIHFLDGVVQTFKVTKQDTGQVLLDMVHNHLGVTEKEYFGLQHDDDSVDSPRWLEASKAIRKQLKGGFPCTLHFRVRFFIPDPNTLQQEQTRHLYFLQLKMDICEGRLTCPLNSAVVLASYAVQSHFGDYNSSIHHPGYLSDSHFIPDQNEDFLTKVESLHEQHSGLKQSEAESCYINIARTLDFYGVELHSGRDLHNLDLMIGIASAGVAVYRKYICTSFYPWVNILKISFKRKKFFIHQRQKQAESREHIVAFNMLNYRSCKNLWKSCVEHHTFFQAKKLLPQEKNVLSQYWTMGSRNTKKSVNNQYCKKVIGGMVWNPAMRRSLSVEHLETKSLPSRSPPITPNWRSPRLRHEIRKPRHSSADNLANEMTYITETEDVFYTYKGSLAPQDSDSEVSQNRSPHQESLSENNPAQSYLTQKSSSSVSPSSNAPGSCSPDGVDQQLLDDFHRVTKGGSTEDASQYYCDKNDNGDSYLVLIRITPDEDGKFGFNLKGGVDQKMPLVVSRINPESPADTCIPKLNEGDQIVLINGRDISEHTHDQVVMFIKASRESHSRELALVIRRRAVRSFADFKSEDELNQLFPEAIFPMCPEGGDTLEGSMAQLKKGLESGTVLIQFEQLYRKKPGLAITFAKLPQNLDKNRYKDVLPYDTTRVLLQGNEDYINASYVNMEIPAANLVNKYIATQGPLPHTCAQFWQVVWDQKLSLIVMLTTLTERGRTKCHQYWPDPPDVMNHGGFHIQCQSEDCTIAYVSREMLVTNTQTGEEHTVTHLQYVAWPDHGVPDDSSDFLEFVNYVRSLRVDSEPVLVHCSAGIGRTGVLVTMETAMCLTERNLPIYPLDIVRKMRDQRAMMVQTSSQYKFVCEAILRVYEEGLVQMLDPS

The substances below were run against T1, LexA_11E6_WT (human papillomavirus 11) (UniProt P04019) (assay: two-hybrid; yeast; LexA DNA binding domain fused to E6 proteins (bait) mated to yeast with B42 (or Gal4) transactivator fusions of E6AP constructs or PTPN3 (prey); LexA-responsive lacZ reporter, dark XGAL patch).
T1 sequence: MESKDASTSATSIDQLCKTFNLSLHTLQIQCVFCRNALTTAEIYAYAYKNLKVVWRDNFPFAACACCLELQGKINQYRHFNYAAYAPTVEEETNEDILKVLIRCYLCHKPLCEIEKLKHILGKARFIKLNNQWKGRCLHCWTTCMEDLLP

Substance | binding
B42_E6AP 406–561 (from UniProt Q05086 406-561) (domain or fragment) | no binding
B42_E6AP 406–595 (from UniProt Q05086 406-595) (domain or fragment) | binds
B42_LQELL (from UniProt Q05086 406-417) (peptide) | no binding
B42_LQELS (from UniProt Q05086 406-417) (peptide) | no binding
Gal4 (G4) transactivator fused PTPN3 (from UniProt P26045 1-913) | no binding
